# T1: KLDLCyclic
# T1 chain: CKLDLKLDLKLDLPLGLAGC
# T2: KFDFCyclic
# T2 chain: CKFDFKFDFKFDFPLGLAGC
# B1: Porcine pancreatic elastase (protein)
# chain: VVGGTEAQRNSWPSQISLQYRSGSSWAHTCGGTLIRQNWVMTAAHCVDRELTFRVVVGEHNLNQNDGTEQYVGVQKIVVHPYWNTDDVAAGYDIALLRLAQSVTLNSYVQLGVLPRAGTILANNSPCYITGWGLTRTNGQLAQTLQQAYLPTVDYAICSSSSYWGSTVKNSMVCAGGDGVRSGCQGDSGGPLHCLVNGQYAVHGVTSFVSRLGCNVTRKPTVFTRVSAYISWINNVIASN
# How the values were obtained:
# KLDLCyclic = molecular target: T1, KLDLCyclic
# KFDFCyclic = molecular target: T2, KFDFCyclic
protein,measurement,setting,value
B1,enzymatic cleavage of progelator (data not shown),KLDLCyclic,"KFDFCyclic and KLDLCyclic (data not shown) were treated with MI-associated enzymes, MMP-9 and elastase to confirm enzyme responsiveness"
same,"enzymatic cleavage of progelator (LCMS, 5 hr)",KFDFCyclic,"KFDFCyclic and KLDLCyclic (data not shown) were treated with MI-associated enzymes, MMP-9 and elastase to confirm enzyme responsiveness"

# Source: patent US20210054027
